From PubChem BioAssay AID463173 (ICCB-Longwood Screening Facility, Harvard Medical School, 2010)
Hit rate of the full screen: of about 52,000 compounds, about 4,300 (8.3%) were called active. Rule as the data show it: active = survival mostly below about 52% (no sharp cut-off); inactive = mostly above about 56%. The list shows a part of the results.

These compounds were tested on DeltatarO mutant (assay: S. aureus survival, RN4220 and DeltatarO strains – OD600, teichoic acid synthesis inhibitors, primary screen (AID 463173)). Settings: S. aureus RN4220 wild type/DeltatarO growth, OD600, 18 h, active compounds read low, screened at 18.75 µg/mL (by protocol).

Q: `Cc1ccc(-c2nc(CCNC(=O)C(=O)Nc3ccc(C)c(Cl)c3)cs2)cc1` was tested. Which survival did it give?
A: The survival was inactive: 60%.

Q: `CCOC(=O)c1sc(NC(=O)c2nc3nc(C)cc(C(F)F)n3n2)c(C(=O)OC(C)C)c1C` was tested. Which survival did it give?
A: The survival was inactive: 73%.

Q: How did the survival turn out when `COc1ccccc1C(=O)Nc1ccccc1C(=O)OCc1cc(=O)n2ccsc2n1` was run?
A: Its survival is active: -5%.

Q: `CCCOc1ccc(CNC(=O)CCCN2C(=O)CSc3c2c(C)nn3-c2ccccc2)cc1` was tested. Which survival did it give?
A: Its survival is inactive: 84%.

Q: `COc1ccccc1NC(=O)CN1C(=O)C(C)(C)c2ccccc21` was tested. Which survival did it give?
A: The survival was inactive: 85%.

Q: `CN(C)c1cc(N)c2ccccc2n1` was tested. Which survival did it give?
A: Its survival is inactive: 103%.

Q: With `Cc1ccc(CNC(=O)CN2C(=O)C3CCCCN3c3ccc(C(=O)N(C)C)cc32)cc1` (configuration not stated) as the compound, how does the survival read?
A: Its survival is inactive: 88%.

Q: How did the survival turn out when `CC1=C(C(=O)Nc2ccccc2C)C(c2sccc2C)n2ncnc2N1` (configuration not stated) was run?
A: The survival was inactive: 95%.

Q: With `Cc1ccc(S(N)(=O)=O)cc1NC(=O)c1c(-c2c(Cl)cccc2Cl)noc1C` as the compound, how does the survival read?
A: The survival was active: 55%.

Q: With `Cc1nc(-c2ccc(F)cc2)sc1CCNC(=O)c1ccccc1C(F)(F)F` as the compound, how does the survival read?
A: Its survival is inactive: 97%.

Q: `Cc1ccc2oc(C(=O)NCC(c3ccc(Cl)cc3)N3CCOCC3)c(C)c2c1` (configuration not stated) was tested. Which survival did it give?
A: Its survival is inactive: 59%.

Q: How did the survival turn out when `CCc1ccc(C2C(C#N)=C(N)OC(C)=C2C(=O)OC)cc1` (configuration not stated) was run?
A: The survival was inactive: 79%.

Q: `Cc1ccc(CNC(=O)c2cc3c(=O)n4cccc(C)c4nc3s2)cc1` was tested. Which survival did it give?
A: Its survival is active: 54%.

Q: `CC(C)c1ccc(NC(=O)C2CCCN(S(=O)(=O)c3ccc4[nH]c(=O)oc4c3)C2)cc1` (configuration not stated) was tested. Which survival did it give?
A: The survival was inactive: 83%.

Q: Which survival does the source give for `CCCN(CCC)CCCNC(=O)Cn1ncn2c(cc3sc(CC)cc32)c1=O` here?
A: Its survival is inactive: 100%.

Q: How did the survival turn out when `Cc1ccc(CNC(=O)CN2N=C(c3ccc(C)cc3)CCC2=O)cc1` was run?
A: The survival was inactive: 99%.

Q: For `CCN(CC)S(=O)(=O)c1ccc2c(c1)c(=O)c(C(=O)N1CCN(c3ccc(OC)cc3)CC1)cn2C`, which survival is on record?
A: Its survival is inactive: 83%.

Q: `CCc1ccccc1NC(=O)c1nc2nc(C)cc(C(F)F)n2n1` was tested. Which survival did it give?
A: Its survival is inactive: 81%.

Q: `Cc1nnc(C)c2c(C)n(-c3ccc4c(c3)OCO4)c(C)c12` was tested. Which survival did it give?
A: The survival was inactive: 107%.

Q: Which survival does the source give for `Cn1c(-c2cccc(Br)c2)cnc1NCc1cccc(F)c1` here?
A: The survival was active: 28%.

Q: With `Cc1cccc(-c2nnc(SCC(=O)Nc3ccc(C)c(C)c3)o2)c1` as the compound, how does the survival read?
A: The survival was inactive: 74%.

Q: How did the survival turn out when `CCOC(=O)COc1ccc(CC)cc1C(=O)c1ccn2nc(-c3ccc(C)cc3)cc2n1` was run?
A: The survival was inactive: 75%.

Q: How did the survival turn out when `CCN(CC)CCNC(=O)CN1C(=O)CSc2ccc(S(=O)(=O)N3CCOCC3)cc21` was run?
A: The survival was inactive: 77%.

Q: For `Cc1ccc(/C=C/c2onc(C)c2S(=O)(=O)N2CCC(C(=O)Nc3cccc(C#N)c3)CC2)cc1`, which survival is on record?
A: The survival was inactive: 71%.

Q: For `Cc1ccccc1CSc1nc2c([nH]c3ccccc32)c(=O)n1-c1ccccc1`, which survival is on record?
A: The survival was inactive: 118%.

Q: `CCc1nnc2c(NCc3ccccc3)nc3ccccc3n12` was tested. Which survival did it give?
A: Its survival is inactive: 94%.

Q: With `Cc1ccc(-c2nnc(Nc3ccc(F)cc3)c3ccccc23)cc1S(=O)(=O)NC(C)C` as the compound, how does the survival read?
A: Its survival is inactive: 77%.

Q: With `N#Cc1c(C(F)(F)F)cc(-c2cccs2)nc1SCC(=O)Nc1cccc(Br)c1` as the compound, how does the survival read?
A: The survival was inactive: 65%.

Q: How did the survival turn out when `Cc1ccc(C(=O)N2CCN(c3ccccc3)CC2)cc1NC(=O)c1nsc2ccccc12` was run?
A: Its survival is inactive: 102%.

Q: Which survival does the source give for `O=C(NCCCN1CCN(c2ccccc2F)CC1)c1ccc2nc(Cc3ccccc3)oc2c1` here?
A: Its survival is active: 46%.

Q: `Cc1ccc(N2C(=O)SC(N(C)c3ccccc3)C2=O)cc1` (configuration not stated) was tested. Which survival did it give?
A: Its survival is inactive: 90%.

Q: With `O=C(NCc1ccc(Cl)cc1)C1CCN(C(=O)c2cnn(-c3ccccc3)c2-n2cccc2)CC1` as the compound, how does the survival read?
A: Its survival is inactive: 65%.

Q: Which survival does the source give for `Cc1ccc(C(=O)Nc2c(C)nc3ccccn3c2=O)cc1` here?
A: Its survival is inactive: 74%.

Q: `Cc1ccc(C)c(N2CCN(C(=O)CCc3c(C)nn(-c4ccc(N5CCCC5)nn4)c3C)CC2)c1` was tested. Which survival did it give?
A: The survival was inactive: 78%.

Q: How did the survival turn out when `CCn1c(SCc2ccccc2)nnc1C1CCCCC1` was run?
A: Its survival is inactive: 80%.

Q: With `O=C(CCCCCn1c(=O)[nH]c2ccsc2c1=O)NCc1ccccc1` as the compound, how does the survival read?
A: Its survival is inactive: 89%.

Q: Which survival does the source give for `Oc1c(C(c2cccc(Br)c2)N2CCCC2)sc2nc(-c3ccco3)nn12` (configuration not stated) here?
A: The survival was inactive: 83%.

Q: How did the survival turn out when `CCOc1ccc(CNC(=O)Cn2nc(N3CCN(c4ccccc4)CC3)ccc2=O)cc1` was run?
A: The survival was inactive: 72%.

Q: With `CCCS(=O)(=O)c1c(S(=O)(=O)CCC)c2cc(C(C)(C)C)ccn2c1C(=O)c1ccc(C)cc1` as the compound, how does the survival read?
A: The survival was inactive: 64%.

Q: For `O=C(/C=C/c1ccco1)OCCN1CCOCC1`, which survival is on record?
A: The survival was inactive: 69%.

Q: How did the survival turn out when `COc1cccc(CN2C(=O)c3ccccc3C2C(=O)NCCc2ccccc2)c1` (configuration not stated) was run?
A: Its survival is inactive: 101%.

Q: How did the survival turn out when `CCC(C)NC(=O)c1ccc(Cn2c(=O)c3cccn3c3cccnc32)cc1` (configuration not stated) was run?
A: Its survival is inactive: 116%.

Q: For `COc1ccc(Nc2nnc(-c3cc4cc(Cl)ccc4oc3=O)s2)cc1`, which survival is on record?
A: Its survival is inactive: 81%.

Q: Which survival does the source give for `COc1cc(SC)ccc1C(=O)N1CCn2c3c(c4cc(C)ccc42)CCCC31` (configuration not stated) here?
A: The survival was inactive: 70%.

Q: For `COc1ccc(-c2nn(-c3ccc(F)cc3)c3c2cnc2cc4c(cc23)OCO4)cc1`, which survival is on record?
A: Its survival is inactive: 79%.

Q: With `CCc1ccccc1NC(=O)CSc1nc2n[nH]c(C)c2c(=N)n1-c1cccc(C)c1` as the compound, how does the survival read?
A: Its survival is inactive: 94%.

Q: Which survival does the source give for `COc1ccccc1CNc1ccc(-c2nc(-c3ccccc3C)no2)cc1[N+](=O)[O-]` here?
A: The survival was inactive: 91%.

Q: For `CCOc1nc(NC(=O)NS(=O)(=O)Oc2cccc(Cl)c2)nc(-c2ccccc2)n1`, which survival is on record?
A: The survival was inactive: 63%.

Q: `CC1CCn2c(nc3cc(C(=O)NCc4ccc(F)cc4)ccc32)C1` (configuration not stated) was tested. Which survival did it give?
A: The survival was inactive: 87%.

Q: For `Cc1cc(C)cc(NC(=O)C2CCN(C(=O)c3cnn(-c4ccccc4)c3-n3cccc3)CC2)c1`, which survival is on record?
A: The survival was inactive: 70%.

Q: Which survival does the source give for `Cc1ccc2c(c1)cc1c(=O)n(CC(=O)NC(C)CCc3ccccc3)nc(C)n12` (configuration not stated) here?
A: The survival was inactive: 105%.

Q: With `CC1CCN(c2ccc(-c3cccc(NS(=O)(=O)c4cccs4)c3)nn2)CC1` as the compound, how does the survival read?
A: The survival was inactive: 89%.

Q: How did the survival turn out when `O=C(NCc1cccs1)c1ccc(CSc2nc3cccnc3n2Cc2ccc(F)cc2)cc1` was run?
A: Its survival is inactive: 70%.

Q: For `Cc1ccc(CNC(=O)CSc2nc(=O)n(Cc3ccco3)c3c2CCC3)cc1`, which survival is on record?
A: The survival was inactive: 78%.

Q: How did the survival turn out when `COc1ccc(-c2c(C#N)c(SCC(=O)Nc3ccc(C)cc3)nc(C)c2C(=O)Nc2ccccc2)cc1` was run?
A: The survival was inactive: 83%.

Q: `O=C(O)CCSc1nnnn1-c1ccccc1` was tested. Which survival did it give?
A: Its survival is inactive: 73%.

Q: How did the survival turn out when `COc1cccc(CNC(=O)CN2CCCN(Cc3ccccc3)S2(=O)=O)c1` was run?
A: The survival was inactive: 77%.
